# The supplement of paper PMC8728848
# The other results are listed elsewhere or left out.
# B1: Siglec-E (Mus musculus), Q91Y57 (protein)
# chain: MLLLLLLLLLWGIKGVEGQNPQEVFTLNVERKVVVQEGLCVLVPCNFSYLKKRLTDWTDSDPVHGFWYREGTDRRKDSIVATNNPIRKAVKETRNRFFLLGDPWRNDCSLNIREIRKKDAGLYFFRLERGKTKYNYMWDKMTLVVTALTNTPQILLPETLEAGHPSNLTCSVPWDCGWTAPPIFSWTGTSVSFLSTNTTGSSVLTITPQPQDHGTNLTCQVTLPGTNVSTRMTTRLNVSYAPKNLTVTIYQGADSVSTILKNGSSLPISEGQSLRLICSTDSYPPANLSWSWDNLTLCPSKLSKPGLLELFPVHLKHGGVYTCQAQHALGSQHISLSLSPQSSATLSEMMMGTFVGSGVTALLFLSVCILLLAVRSYRRKPARPAVVAPHPDALKVSVSQNPLVESQADDSSEPLPSILEAAPSSTEEEIHYATLSFHEMKPMNLWGQQDTTTEYSEIKFPQRTAWP
# Columns and labels:
# Assay in all cases: glycan array binding signal (z-score within array); higher = stronger binding
# Conditions in all cases: glycan notation: IUPAC condensed, linker removed
# [1] = target: Gal(b1-3)[Fuc(a1-4)]GlcNAc(b1-3)Gal(b1-4)[Fuc(a1-3)]GlcNAc
# In short: (§1)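 The binding signal is a Z-score computed within each array. Data were drawn from 3228 arrays in the Consortium for Functional Glycomics database, restricted to those with a known protein sequence. Scores were averaged over arrays of the same protein sequence at different concentrations or buffers, and over linkers, and negative values can be taken as non-binding.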
# [2] = target: Gal(b1-3)[Fuc(a1-4)]GlcNAc(b1-6)GalNAc
# In short: as §1
# [3] = target: Gal(b1-3)[GlcNAc(b1-6)]GalNAc
# In short: as §1
# [4] = target: Gal(b1-3)[Neu5Ac(a2-6)]GalNAc
# In short: as §1
# [5] = target: Gal(b1-3)[Neu5Ac(a2-6)]GlcNAc(b1-4)Gal(b1-4)Glc
# In short: as §1
# [6] = target: Gal(b1-3)[Neu5Ac(b2-6)]GalNAc
# In short: as §1
# [7] = target: Gal(b1-4)Gal
# In short: as §1
# [8] = target: Gal(b1-4)GalNAc(a1-3)[Fuc(a1-2)]Gal(b1-4)GlcNAc
# In short: as §1
# [9] = target: Gal(b1-4)GalNAc(b1-3)[Fuc(a1-2)]Gal(b1-4)GlcNAc
# In short: as §1
# [10] = target: Gal(b1-4)Glc
# In short: as §1
# [11] = target: Gal(b1-4)Glc6S
# In short: as §1
# [12] = target: Gal(b1-4)GlcNAc
# In short: as §1
# [13] = target: Gal(b1-4)GlcNAc(a1-6)Gal(b1-4)GlcNAc
# In short: as §1
# [14] = target: Gal(b1-4)GlcNAc(b1-2)Man
# In short: as §1
# [15] = target: Gal(b1-4)GlcNAc(b1-2)Man(a1-3)Man(b1-4)GlcNAc(b1-4)GlcNAc
# In short: as §1
# [16] = target: Gal(b1-4)GlcNAc(b1-2)Man(a1-3)[Gal(b1-4)GlcNAc(b1-2)Man(a1-6)]Man(b1-4)GlcNAc(b1-4)GlcNAc
# In short: as §1
# [17] = target: Gal(b1-4)GlcNAc(b1-2)Man(a1-3)[Gal(b1-4)GlcNAc(b1-2)Man(a1-6)]Man(b1-4)GlcNAc(b1-4)[Fuc(a1-6)]GlcNAc
# In short: as §1
# [18] = target: Gal(b1-4)GlcNAc(b1-2)Man(a1-3)[Gal(b1-4)GlcNAc(b1-2)Man(a1-6)][Gal(b1-4)GlcNAc(b1-4)]Man(b1-4)GlcNAc(b1-4)[Fuc(a1-6)]GlcNAc
# In short: as §1
# [19] = target: Gal(b1-4)GlcNAc(b1-2)Man(a1-3)[Gal(b1-4)GlcNAc(b1-2)Man(a1-6)][GlcNAc(b1-4)]Man(b1-4)GlcNAc(b1-4)[Fuc(a1-6)]GlcNAc
# In short: as §1
# [20] = target: Gal(b1-4)GlcNAc(b1-2)Man(a1-3)[GlcNAc(b1-2)Man(a1-6)]Man(b1-4)GlcNAc(b1-4)GlcNAc
# In short: as §1
# [21] = target: Gal(b1-4)GlcNAc(b1-2)Man(a1-3)[GlcNAc(b1-4)][Gal(b1-4)GlcNAc(b1-2)Man(a1-6)]Man(b1-4)GlcNAc(b1-4)GlcNAc
# In short: as §1
# [22] = target: Gal(b1-4)GlcNAc(b1-2)Man(a1-3)[Man(a1-6)]Man(b1-4)GlcNAc(b1-4)GlcNAc
# In short: as §1
# [23] = target: Gal(b1-4)GlcNAc(b1-2)Man(a1-6)Man(b1-4)GlcNAc(b1-4)GlcNAc
# In short: as §1
# [24] = target: Gal(b1-4)GlcNAc(b1-2)Man(a1-6)[GlcNAc(b1-2)Man(a1-3)]Man(b1-4)GlcNAc(b1-4)GlcNAc
# In short: as §1
# [25] = target: Gal(b1-4)GlcNAc(b1-2)Man(a1-6)[Man(a1-3)]Man(b1-4)GlcNAc(b1-4)GlcNAc
# In short: as §1
# [26] = target: Gal(b1-4)GlcNAc(b1-2)[Gal(b1-4)GlcNAc(b1-4)]Man(a1-3)[Gal(b1-4)GlcNAc(b1-2)Man(a1-6)]Man(b1-4)GlcNAc(b1-4)GlcNAc
# In short: as §1
# [27] = target: Gal(b1-4)GlcNAc(b1-2)[Gal(b1-4)GlcNAc(b1-4)]Man(a1-3)[Gal(b1-4)GlcNAc(b1-2)[Gal(b1-4)GlcNAc(b1-6)]Man(a1-6)]Man(b1-4)GlcNAc(b1-4)GlcNAc
# In short: as §1
# [28] = target: Gal(b1-4)GlcNAc(b1-2)[Gal(b1-4)GlcNAc(b1-4)]Man(a1-3)[GlcNAc(b1-4)][Gal(b1-4)GlcNAc(b1-2)Man(a1-6)]Man(b1-4)GlcNAc(b1-4)GlcNAc
# In short: as §1
# [29] = target: Gal(b1-4)GlcNAc(b1-2)[Gal(b1-4)GlcNAc(b1-4)]Man(a1-3)[GlcNAc(b1-4)][Gal(b1-4)GlcNAc(b1-2)[Gal(b1-4)GlcNAc(b1-6)]Man(a1-6)]Man(b1-4)GlcNAc(b1-4)GlcNAc
# In short: as §1
# [30] = target: Gal(b1-4)GlcNAc(b1-2)[Gal(b1-4)GlcNAc(b1-6)]Man(a1-6)[Gal(b1-4)GlcNAc(b1-2)Man(a1-3)]Man(b1-4)GlcNAc(b1-4)GlcNAc
# In short: as §1
# [31] = target: Gal(b1-4)GlcNAc(b1-2)[Gal(b1-4)GlcNAc(b1-6)]Man(a1-6)[Gal(b1-4)GlcNAc(b1-2)Man(a1-3)]Man(b1-4)GlcNAc(b1-4)[Fuc(a1-6)]GlcNAc
# In short: as §1
# [32] = target: Gal(b1-4)GlcNAc(b1-2)[Gal(b1-4)GlcNAc(b1-6)]Man(a1-6)[GlcNAc(b1-4)][Gal(b1-4)GlcNAc(b1-2)Man(a1-3)]Man(b1-4)GlcNAc(b1-4)GlcNAc
# In short: as §1
# [33] = target: Gal(b1-4)GlcNAc(b1-2)[Gal(b1-4)GlcNAc(b1-6)]Man(a1-6)[GlcNAc(b1-4)][Gal(b1-4)GlcNAc(b1-2)[Gal(b1-4)GlcNAc(b1-4)]Man(a1-3)]Man(b1-4)GlcNAc(b1-4)[Fuc(a1-6)]GlcNAc
# In short: as §1
# [34] = target: Gal(b1-4)GlcNAc(b1-3)Gal(b1-3)GalNAc
# In short: as §1
# [35] = target: Gal(b1-4)GlcNAc(b1-3)Gal(b1-3)GlcNAc
# In short: as §1
# [36] = target: Gal(b1-4)GlcNAc(b1-3)Gal(b1-4)Glc
# In short: as §1
# [37] = target: Gal(b1-4)GlcNAc(b1-3)Gal(b1-4)GlcNAc
# In short: as §1
# [38] = target: Gal(b1-4)GlcNAc(b1-3)Gal(b1-4)GlcNAc(b1-2)Man(a1-3)[Gal(b1-4)GlcNAc(b1-3)Gal(b1-4)GlcNAc(b1-2)Man(a1-6)]Man(b1-4)GlcNAc(b1-4)GlcNAc
# In short: as §1
binder,measurement,setting,value
B1,glycan array binding signal (z-score),[1],-0.466
same,glycan array binding signal (z-score),[2],-0.397
same,glycan array binding signal (z-score),[3],-0.521
same,glycan array binding signal (z-score),[4],-0.109
same,glycan array binding signal (z-score),[5],-0.327
same,glycan array binding signal (z-score),[6],-0.566
same,glycan array binding signal (z-score),[7],3.25
same,glycan array binding signal (z-score),[8],-0.594
same,glycan array binding signal (z-score),[9],-0.625
same,glycan array binding signal (z-score),[10],-0.324
same,glycan array binding signal (z-score),[11],-0.266
same,glycan array binding signal (z-score),[12],-0.433
same,glycan array binding signal (z-score),[13],-0.108
same,glycan array binding signal (z-score),[14],2.29
same,glycan array binding signal (z-score),[15],-0.39
same,glycan array binding signal (z-score),[16],-0.384
same,glycan array binding signal (z-score),[17],1.18
same,glycan array binding signal (z-score),[18],-0.429
same,glycan array binding signal (z-score),[19],-0.6
same,glycan array binding signal (z-score),[20],-0.379
same,glycan array binding signal (z-score),[21],-0.388
same,glycan array binding signal (z-score),[22],0.024
same,glycan array binding signal (z-score),[23],-0.638
same,glycan array binding signal (z-score),[24],-0.414
same,glycan array binding signal (z-score),[25],-0.439
same,glycan array binding signal (z-score),[26],-0.496
same,glycan array binding signal (z-score),[27],-0.667
same,glycan array binding signal (z-score),[28],0.685
same,glycan array binding signal (z-score),[29],-0.189
same,glycan array binding signal (z-score),[30],0.105
same,glycan array binding signal (z-score),[31],0.444
same,glycan array binding signal (z-score),[32],-0.367
same,glycan array binding signal (z-score),[33],-0.331
same,glycan array binding signal (z-score),[34],-0.224
same,glycan array binding signal (z-score),[35],-0.527
same,glycan array binding signal (z-score),[36],-0.128
same,glycan array binding signal (z-score),[37],-0.523
same,glycan array binding signal (z-score),[38],0.558
